From PubChem BioAssay (NCATS)
This list was built around the results that the source calls inconclusive (neither active nor inactive); the mix of calls is not that of the screen. A potency beside an inconclusive call is a rough fit, not a confirmed value. The source made the active and inactive calls. The call rests on the fitted dose curve; in most records, active means well fitted inhibition curve with a large enough effect; inconclusive means small, poorly fitted or top-dose-only effect; inactive means no such curve, though single readings can be large or run the other way.

molecular target: Cytochrome P450 2C19 (Homo sapiens) (UniProt P33261); assay: qHTS Assay for Inhibitors and Substrates of Cytochrome P450 2C19 (AID 899); conditions: recombinant CYP2C19, luciferin-H EGE luminescence; series mostly up to 11.4 µM; further: nearly all actives have a fitted effect of over 60% in size
Sequence of UniProt P33261 (P33261 whole entry, looked up): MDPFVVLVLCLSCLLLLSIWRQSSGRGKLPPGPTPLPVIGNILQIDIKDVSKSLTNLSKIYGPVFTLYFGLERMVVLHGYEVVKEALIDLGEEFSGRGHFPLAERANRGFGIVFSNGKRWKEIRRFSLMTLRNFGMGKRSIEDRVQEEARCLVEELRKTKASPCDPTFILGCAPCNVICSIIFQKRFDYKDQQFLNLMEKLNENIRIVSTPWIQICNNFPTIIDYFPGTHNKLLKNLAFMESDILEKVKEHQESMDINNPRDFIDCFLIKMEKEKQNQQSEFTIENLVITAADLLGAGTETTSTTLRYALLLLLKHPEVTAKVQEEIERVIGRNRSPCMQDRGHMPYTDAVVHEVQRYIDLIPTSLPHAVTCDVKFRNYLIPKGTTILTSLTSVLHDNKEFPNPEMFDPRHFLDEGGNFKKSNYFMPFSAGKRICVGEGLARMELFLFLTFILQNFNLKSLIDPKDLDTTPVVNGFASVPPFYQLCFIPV
Method in brief: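 NADPH-dependent conversion of Luciferin-H EGE (10uM, at KM) by 5nM enzyme in 50mM KPO4, 60 min at 37C following 10 min compound preincubation. Stopped with luciferin detection buffer; luminescence read after 20 min.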
Potency means the concentration at half of the fitted maximal effect; tags describe the fitted curve by direction and shape.

Question: For `CCOC(=O)[C@]1(C(NC(=O)OC)c2ccco2)CCCC1=O` (stereo partly drawn), which Potency is on record?
Answer: inactive

Question: `CC(=O)OC[C@@H]1O[C@H](C/C=N\O[C@@H](C)c2cn([C@H]3COC[C@H]3O)nn2)C=C[C@@H]1OC(C)=O` was tested. Which Potency did it give?
Answer: inactive

Question: `COC(=O)[C@@]1(Cc2ccc(OC)cc2)[C@H]2c3cc(C(=O)N4CCCC4)n(Cc4cc(F)c(F)c(F)c4)c3C[C@H]2CN1C(=O)c1ccccc1` was tested. Which Potency did it give?
Answer: inconclusive: 1.58 µM [inhibitor, partial curve, poor fit]

Question: Which Potency does the source give for `CC1(C)[C@@H]2CC[C@]1(C)[C@@H](OC(=O)/C=C\c1ccccc1)C2` here?
Answer: inconclusive: 0.004 µM [inhibitor, full curve, poor fit]

Question: `COCCNC(=O)[C@H](C)[C@H]1C[C@]1(C)[C@H](NC(=O)OCc1ccccc1)c1ccccc1` was tested. Which Potency did it give?
Answer: inconclusive: 7.94 µM [inhibitor, partial curve, poor fit]

Question: For `O=C(c1csnn1)N1CCC2(CC1)CN(C(c1ccccc1)c1ccccc1)C2`, which Potency is on record?
Answer: inconclusive: 0.0063 µM [inhibitor, full curve, poor fit]

Question: Which Potency does the source give for `CCCNC(=O)OC[C@@H]1O[C@H](CCO/N=C\C[C@H]2C=C[C@H](OC(C)=O)[C@@H](COC(C)=O)O2)C=C[C@@H]1Oc1ccc(OC)cc1` here?
Answer: inconclusive: 3.98 µM [inhibitor, partial curve, poor fit]

Question: With `CCOC(=O)C1=C(C)NC(C)=C(C(=O)OC)[C@@H]1c1cccc([N+](=O)[O-])c1` as the molecule, how does the Potency read?
Answer: active: 0.126 µM

Question: With `C[C@@]12CC[C@@H]3c4ccc(O)cc4CC[C@H]3[C@H]1C[C@@H](O)[C@H]2O` as the molecule, how does the Potency read?
Answer: inconclusive: 7.94 µM [inhibitor, single point]

Question: `COC(=O)NC(c1ccc(Cl)cc1)C(C(C)=O)C(=O)OC` (stereo not drawn) was tested. Which Potency did it give?
Answer: active: 1.58 µM

Question: With `Cc1cc(F)ccc1OC1C=CC(c2ccc3c(c2)OCO3)OC1CO` (stereo not drawn) as the molecule, how does the Potency read?
Answer: inactive

Question: `O=C(c1cc(C(F)(F)F)cc(C(F)(F)F)c1)N1CCC2(CC1)CN(c1ncccn1)C2` was tested. Which Potency did it give?
Answer: inactive

Question: With `COc1cc(C2NC(C(=O)O)Cc3c2[nH]c2ccccc32)cc(OC)c1OC` (stereo not drawn) as the molecule, how does the Potency read?
Answer: inactive

Question: Which Potency does the source give for `COc1ccc(Oc2ncc3ncc(=O)n(C4CC4)c3n2)cc1` here?
Answer: inconclusive: 0.316 µM [inhibitor, partial curve]

Question: How did the Potency turn out when `NNC(=O)CCc1ccc2ccc3ccccc3c2c1` was run?
Answer: active: 0.251 µM

Question: For `COc1ccc(C#CC2C=CC(Oc3cc(C)cc(C)c3)C(CO)O2)cc1` (stereo not drawn), which Potency is on record?
Answer: active: 0.0631 µM

Question: For `COc1ccc(O[C@H]2C=C[C@@H](c3ccccc3)O[C@H]2CO/N=C2/c3cc(OC)ccc3O[C@@H](c3cccc(OC)c3)[C@H]2O)cc1`, which Potency is on record?
Answer: active: 0.501 µM

Question: How did the Potency turn out when `O=c1[nH]c(=O)n([C@H]2C[C@H](O)[C@H](CO)O2)cc1Br` was run?
Answer: inactive

Question: Which Potency does the source give for `CC(C)=NOCc1cccc(-c2cc(-c3ccccc3)no2)c1` here?
Answer: inconclusive: 3.98 µM [inhibitor, single point]

Question: For `O=C(/C=C\c1ccccc1)c1ccccc1O`, which Potency is on record?
Answer: inconclusive: 3.98 µM [inhibitor, partial curve]

Question: Which Potency does the source give for `CC(=O)OCC1OC(C#Cc2ccc(F)cc2F)C=CC1OC(C)=O` (stereo not drawn) here?
Answer: active: 2.51 µM

Question: With `O=C1[C@H]2[C@H]3[C@H](O)[C@H](O)C/C(=N/OCc4ccccc4)[C@H]3CC[C@@H]2C(=O)N1C[C@@H]1CCCO1` as the molecule, how does the Potency read?
Answer: inactive

Question: Which Potency does the source give for `CC(C)C[C@@H](CC(=O)N[C@@H](CCC(=O)O)CC(=O)O)NC(=O)[C@@H]1CNCC[C@H]1NC(=O)C[C@H](CCCN)NC(=O)C[C@H](Cc1c[nH]c2ccccc12)NC(=O)[C@@H]1CNCC[C@H]1N` here?
Answer: inactive

Question: `C[C@H](CCC(=O)NN)[C@@H]1CC[C@@H]2[C@H]3CC[C@H]4C[C@@H](O)CC[C@@]4(C)[C@@H]3CC[C@]21C` was tested. Which Potency did it give?
Answer: inconclusive: 3.16 µM [inhibitor, partial curve, poor fit]

Question: How did the Potency turn out when `NC(N)=NC(N)=Nc1ccccc1` (tested in a mixture with another compound) was run?
Answer: inconclusive: 7.94 µM [inhibitor, single point]

Question: For `O=C(c1cccc(F)c1)N1CCC[C@@]2(CCN(c3ccncc3)C2)C1`, which Potency is on record?
Answer: inconclusive: 2.51 µM [inhibitor, partial curve, poor fit]

Question: How did the Potency turn out when `COc1ccc(/C=C/N(CCc2ccc(OC)c(OC)c2)C(=O)C(F)(F)F)cc1` was run?
Answer: active: 0.0794 µM

Question: For `CC(C)C[C@@H](CC(=O)N[C@@H](CCC(=O)O)CC(=O)O)NC(=O)[C@@H]1CNCC[C@H]1NC(=O)C[C@H](CCCN)NC(=O)C[C@H](CO)NC(=O)[C@@H]1CCCC[C@H]1N`, which Potency is on record?
Answer: inactive
